Source: the supplement of paper PMC9446081
About 220 (0.56%) of roughly 39,000 compounds showed activity. The list shows a part of the results.

tested on: Escherichia coli K-12 BW25113; test: relative growth (OD600 normalised to plate interquartile mean) (fraction); higher = less growth inhibition, active = 0.2 or less; conditions: 50 µM; LB; incubation time: overnight (16-24 h)
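Also: static incubation at 37 °C against the wild-type strain, values averaged over two biological replicates.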

Structure (SMILES) | relative growth
COCC(=O)N1C[C@@H](C)[C@@H](OC)CN(C)C(=O)c2ccc(NC(=O)Nc3cccc(F)c3)cc2OC[C@@H]1C | inactive: 0.997
COc1ccc(CN(C)C[C@H]2OCCCC[C@H](C)Oc3ccc(NC(=O)Nc4ccc5c(c4)OCO5)cc3C(=O)N([C@@H](C)CO)C[C@@H]2C)cc1 | inactive: 0.999
Cc1noc(C)c1NC(=O)Nc1ccc2c(c1)C(=O)N([C@@H](C)CO)C[C@@H](C)[C@@H](CN(C)S(=O)(=O)c1ccccc1)OCCCC[C@@H](C)O2 | inactive: 1
C[C@@H]1CN([C@H](C)CO)C(=O)c2cc(NS(=O)(=O)c3ccc(Cl)cc3)ccc2O[C@H]1CN(C)S(C)(=O)=O | inactive: 1
C[C@H]1CN([C@@H](C)CO)C(=O)c2cccc(NS(=O)(=O)c3cccs3)c2O[C@@H]1CN(C)Cc1ccc(Cl)c(Cl)c1 | inactive: 1.02
C[C@H]1CCCCO[C@H](CN(C)S(=O)(=O)c2cccs2)[C@@H](C)CN([C@@H](C)CO)C(=O)c2cc(NC(=O)C3CCCCC3)ccc2O1 | inactive: 0.995
COc1ccc(S(=O)(=O)N(C)C[C@H]2Oc3ccc(NC(=O)C4CC4)cc3CC(=O)N([C@H](C)CO)C[C@@H]2C)cc1 | inactive: 0.993
COc1ccc(CN(C)C[C@H]2OCCCC[C@@H](C)Oc3ccc(NC(=O)NC(C)C)cc3C(=O)N([C@@H](C)CO)C[C@@H]2C)cc1 | inactive: 1.02
C[C@H](O)C#Cc1ccc2c(c1)O[C@@H](CN(C)C(=O)C1CCCCC1)[C@@H](C)CN([C@H](C)CO)S2(=O)=O | inactive: 0.999
CN(C)CCCNC(=O)C[C@@H]1CC[C@H]2[C@@H](COc3ccc(NC(=O)c4cccc(F)c4)cc3C(=O)N2C)O1 | inactive: 1
COCC(=O)Nc1ccc2c(c1)OC[C@H](C)N(C(=O)c1ccccc1F)C[C@@H](C)[C@H](OC)CN(C)C2=O | inactive: 1.01
CN(C)C(=O)c1cccc(-c2cccc(-c3nc(C(=O)NC4CCCCC4)cc4c3[C@H](CCO)N([S@@](=O)C(C)(C)C)C4)c2)c1 | inactive: 0.988
COc1ccc(NC(=O)Nc2ccc3c(c2)C(=O)N([C@@H](C)CO)C[C@H](C)[C@H](CN(C)C(=O)C2CCCCC2)OCCCC[C@H](C)O3)cc1 | inactive: 1.01
C[C@@H]1CN([C@H](C)CO)C(=O)c2cc(-c3cccc(C#N)c3)cnc2O[C@H]1CN(C)C(=O)c1cnccn1 | inactive: 0.994
Cc1ccc(S(=O)(=O)N(C)C[C@H]2Oc3ccc(NC(=O)C4CC4)cc3C(=O)N([C@@H](C)CO)C[C@@H]2C)cc1 | inactive: 1
C[C@@H]1CN([C@@H](C)CO)C(=O)c2cc(NC(=O)Nc3ccc(C(F)(F)F)cc3)ccc2O[C@H]1CN(C)Cc1ccc(Oc2ccccc2)cc1 | inactive: 1.02
C[C@@H]1CCCCO[C@@H](CN(C)C(=O)c2ccccc2)[C@H](C)CN([C@H](C)CO)C(=O)c2cc(NS(=O)(=O)c3ccccc3)ccc2O1 | inactive: 1.01
COc1ccc(S(=O)(=O)Nc2cccc3c2O[C@H](CN(C)Cc2ccc(Cl)c(Cl)c2)[C@@H](C)CN([C@@H](C)CO)C3=O)cc1 | inactive: 1.01
COc1ccc(S(=O)(=O)Nc2ccc3c(c2)C(=O)N([C@H](C)CO)C[C@@H](C)[C@H](CN(C)S(=O)(=O)c2ccc(Cl)cc2)OCCCC[C@@H](C)O3)cc1 | inactive: 1.02

Structure (SMILES) | relative growth
CCn1nnc2c1CCN(S(=O)(=O)c1cn(C)cn1)[C@@H]2COC | inactive: 1
C[C@H](CO)N1C[C@H](C)[C@@H](CN(C)Cc2ccc(C(=O)Nc3ccccc3N)cc2)Oc2c(NC(=O)Nc3ccc(C(F)(F)F)cc3)cccc2C1=O | inactive: 0.996
OC1C(O)C(O)C(O)C(O)C1O (stereo not drawn) | inactive: 1.1
CN1C[C@]2(CCN(C(=O)c3cn(CCN4CCNCC4)nn3)C2)OC1=O | inactive: 0.973
CC(=O)CC(=O)O | inactive: 1
C[C@@H]1CCCCO[C@H](CN(C)C(=O)Nc2cccc3ccccc23)[C@@H](C)CN([C@H](C)CO)C(=O)c2cc(NC(=O)c3ccccc3)ccc2O1 | inactive: 1.06
CC(C)(C)OC(=O)CC[C@]12N=C(c3ccc(OCCCO)cc3)O[C@H]1c1ccccc1CN(C(=O)c1ccccc1)C2=O | inactive: 1.06
C[C@@H]1CN([C@@H](C)CO)C(=O)Cc2cc(NC(=O)CCN3CCOCC3)ccc2O[C@@H]1CN(C)Cc1ccc2c(c1)OCO2 | inactive: 1.02
C[C@@H]1CCCCO[C@H](CN(C)Cc2ccc(C(F)(F)F)cc2)[C@H](C)CN([C@@H](C)CO)C(=O)c2cc(NC(=O)Nc3ccc4c(c3)OCO4)ccc2O1 | inactive: 0.994
COc1ccc(S(=O)(=O)N(C)C[C@H]2Oc3c(NC(=O)NC(C)C)cccc3C(=O)N([C@H](C)CO)C[C@H]2C)cc1 | inactive: 1.01
C[C@@H]1CCCCO[C@@H](CN(C)CC2CC2)[C@H](C)CN([C@H](C)CO)C(=O)c2cc(NC(=O)Nc3ccc4c(c3)OCO4)ccc2O1 | inactive: 0.992
C[C@@H]1CN([C@H](C)CO)C(=O)c2cccc(NC(=O)c3ccc(-c4nccs4)cc3)c2O[C@@H]1CN(C)Cc1ccc2c(c1)OCO2 | inactive: 1.03
CC(C)NC(=O)Nc1ccc2c(c1)C(=O)N([C@H](C)CO)C[C@H](C)[C@@H](CN(C)Cc1ccc3c(c1)OCO3)O2 | inactive: 1.03
C[C@H](CO)N1C[C@H](C)[C@H](CN(C)Cc2ccc3c(c2)OCO3)Oc2ncc(C#CCN(C)C)cc2C1=O | inactive: 1.02
Cc1cccc(C)c1NC(=O)C1CCCCN1C.Cl (stereo not drawn) | inactive: 1.18
C[C@H](CO)N1C[C@H](C)[C@@H](CN(C)C(=O)Nc2ccccc2)OCCCC[C@H](C)Oc2ccc(NC(=O)Nc3cccc4ccccc34)cc2C1=O | inactive: 1.04
CC(=O)Oc1ccc2c(C)cc(=O)oc2c1 | inactive: 1.09
C[C@H]1CN([C@@H](C)CO)C(=O)c2cc(NC(=O)Cn3cnnn3)ccc2O[C@H]1CN(C)C(=O)Nc1ccc(C(F)(F)F)cc1 | inactive: 0.981
COc1ccc(NC(=O)Nc2ccc3c(c2)CC(=O)N([C@H](C)CO)C[C@@H](C)[C@H](CN(C)Cc2ccc(C(F)(F)F)cc2)O3)cc1 | inactive: 1.04
